Sequences with one replicate were seen in a single cluster, so their values are uncertain.
These sequences were tested on ATP (assay: switch fluorescence ratio, 500 uM ATP over buffer (Cy3 cluster intensity, sum of 5 cycles each) (fold (ratio)); higher = stronger signal-on switching upon ATP binding; sequences stand for … in TCGTCGGCAGCGTCAGATGTGTATAAGAGACAGTTTTTTTTTTTTTTTTTTTTTTTTT…TC). Settings: aptamer strand: ATP DNA aptamer (quencher-CACCTGGGGGAGTATTGCGGAGGAAGG + anchor), 100 nM annealed; ATP concentration: 500 uM; one replicate.
Summary of the method: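 Five buffer/ATP imaging cycles were run on Cy3-labelled switching-strand clusters on a modified Illumina MiSeq flow-cell, with NaOH stripping and re-annealing between cycles. In each cycle, clusters annealed to 100 nM quencher-labelled ATP aptamer were imaged in selection buffer, then after 15 min with 500 uM ATP at 22 °C. Per cluster, the fluorescence ratio is summed target-cycle over summed buffer-cycle Cy3 intensity, averaged per switch-domain sequence. Only clusters within 100-1000 RFU were kept.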
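Note: ATP exposure 15 min at 22 °C before imaging.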

Row | Sequence | switch fluorescence ratio
1 | TTCGTATAAA | 0.959
2 | TTCGTATGTA | 1.04
3 | TTCGTCCAAT | 1.08
4 | TTCGTCGGCG | 0.978
5 | TTCGTCGGCT | 1.05
6 | TTCGTGGAAA | 1.04
7 | TTCGTGTTT | 0.995
8 | TTCGTTGTA | 1.03
9 | TTCTAAGAAG | 0.957
10 | TTCTAAGACT | 1.06
11 | TTCTAGAGCC | 1.1
12 | TTCTAGAGCG | 1.02
13 | TTCTATACGA | 1.06
14 | TTCTATCTA | 0.986
15 | TTCTATGACA | 1.02
16 | TTCTATGGG | 1.02
17 | TTCTATTGCT | 1.01
18 | TTCTCATTGC | 1.96
19 | TTCTCATTGT | 0.982
20 | TTCTCCCCGT | 1.14
21 | TTCTCCCGTA | 1.07
22 | TTCTCCCTGT | 1.08
23 | TTCTCGCTCG | 1.11
24 | TTCTCGGCGA | 2.76
25 | TTCTCGTAAA | 1.24

Row | Sequence | switch fluorescence ratio
26 | TTCTCTAGTT | 1
27 | TTCTCTCTA | 1.05
28 | TTCTCTTAAA | 1.01
29 | TTCTGAGGAC | 0.988
30 | TTCTGATTTT | 0.991
31 | TTCTGCCCGC | 1.13
32 | TTCTGGTAGT | 0.998
33 | TTCTGTGATA | 1.01
34 | TTCTTAGAGA | 1
35 | TTCTTAGGGT | 0.963
36 | TTCTTATAGG | 1
37 | TTCTTATAT | 0.93
38 | TTCTTATTCG | 0.98
39 | TTCTTCACAA | 1.32
40 | TTCTTCAGTA | 0.995
41 | TTCTTGACAT | 1
42 | TTCTTGCCAG | 1.02
43 | TTCTTGTCTT | 0.99
44 | TTCTTTACAT | 0.986
45 | TTCTTTATAA | 0.957
46 | TTCTTTCTTT | 1.02
47 | TTCTTTGAAG | 1
48 | TTCTTTTGAT | 0.958
49 | TTCTTTTGT | 0.961
50 | TTGAAAAGAC | 1.02

Row | Sequence | switch fluorescence ratio
51 | TTGAAAGTGC | 1.01
52 | TTGAAAGTTG | 1.11
53 | TTGAAATTGA | 0.943
54 | TTGAAGAGTT | 1.03
55 | TTGAATAAGT | 1.01
56 | TTGAATCATC | 1.02
57 | TTGAATGCG | 0.984
58 | TTGAATGCTT | 0.984
59 | TTGACAGCTT | 1.03
60 | TTGACCAACG | 1.15
61 | TTGACCGCCA | 1.32
62 | TTGACCGGCG | 1.12
63 | TTGACCGGTG | 1.01
64 | TTGACCTG | 1.04
65 | TTGACCTGTC | 0.959
66 | TTGACGCCGA | 0.989
67 | TTGACGGATA | 0.985
68 | TTGACGGATC | 0.991
69 | TTGACTATTA | 1.01
70 | TTGACTGACG | 1.07
71 | TTGAGAAATA | 0.972
72 | TTGAGATCGT | 0.996
73 | TTGAGATTGT | 1.01
74 | TTGAGCAACA | 1.04
75 | TTGAGCGGCG | 0.982

Row | Sequence | switch fluorescence ratio
76 | TTGAGGAATT | 0.974
77 | TTGAGGACTG | 1.06
78 | TTGAGGCGAA | 1.22
79 | TTGAGGCTTT | 1.02
80 | TTGAGGGATT | 1.04
81 | TTGAGGTGGT | 0.977
82 | TTGAGGTTCC | 1.01
83 | TTGAGTACC | 0.981
84 | TTGAGTTAGA | 0.985
85 | TTGATACCTT | 1.17
86 | TTGATAGCAG | 1.01
87 | TTGATAGGGC | 1.01
88 | TTGATCAAT | 1.01
89 | TTGATCAG | 1.02
90 | TTGATGAATC | 0.997
91 | TTGATGAATG | 1
92 | TTGATGAGTT | 0.992
93 | TTGATGCTGC | 1.06
94 | TTGATTGGGT | 1.02
95 | TTGATTGTC | 1.03
96 | TTGATTTTCT | 1.02
97 | TTGCAAGATG | 1.01
98 | TTGCACAAC | 1.1
99 | TTGCACATAT | 1.04
100 | TTGCACCGGA | 0.962
